# Assay results from publication PMC4336329 (PLoS ONE, 2015).
# The whole screen tested about 310,000 compounds, of which about 14,000 (4.5%) showed an effect of 50% or more. The effect is printed as a negative number. The list shows a part of the results.
# Target: human ether-à-go-go-related gene (hERG) potassium channel (human, UniProt Q12809)
# Assay: primary screen, population patch clamp on CHO cells stably expressing hERG
# 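Further: peak tail current of the secondary pulse compared with the same well before compound.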
# Chain of human ether-à-go-go-related gene (hERG) potassium channel (Q12809 whole entry, looked up): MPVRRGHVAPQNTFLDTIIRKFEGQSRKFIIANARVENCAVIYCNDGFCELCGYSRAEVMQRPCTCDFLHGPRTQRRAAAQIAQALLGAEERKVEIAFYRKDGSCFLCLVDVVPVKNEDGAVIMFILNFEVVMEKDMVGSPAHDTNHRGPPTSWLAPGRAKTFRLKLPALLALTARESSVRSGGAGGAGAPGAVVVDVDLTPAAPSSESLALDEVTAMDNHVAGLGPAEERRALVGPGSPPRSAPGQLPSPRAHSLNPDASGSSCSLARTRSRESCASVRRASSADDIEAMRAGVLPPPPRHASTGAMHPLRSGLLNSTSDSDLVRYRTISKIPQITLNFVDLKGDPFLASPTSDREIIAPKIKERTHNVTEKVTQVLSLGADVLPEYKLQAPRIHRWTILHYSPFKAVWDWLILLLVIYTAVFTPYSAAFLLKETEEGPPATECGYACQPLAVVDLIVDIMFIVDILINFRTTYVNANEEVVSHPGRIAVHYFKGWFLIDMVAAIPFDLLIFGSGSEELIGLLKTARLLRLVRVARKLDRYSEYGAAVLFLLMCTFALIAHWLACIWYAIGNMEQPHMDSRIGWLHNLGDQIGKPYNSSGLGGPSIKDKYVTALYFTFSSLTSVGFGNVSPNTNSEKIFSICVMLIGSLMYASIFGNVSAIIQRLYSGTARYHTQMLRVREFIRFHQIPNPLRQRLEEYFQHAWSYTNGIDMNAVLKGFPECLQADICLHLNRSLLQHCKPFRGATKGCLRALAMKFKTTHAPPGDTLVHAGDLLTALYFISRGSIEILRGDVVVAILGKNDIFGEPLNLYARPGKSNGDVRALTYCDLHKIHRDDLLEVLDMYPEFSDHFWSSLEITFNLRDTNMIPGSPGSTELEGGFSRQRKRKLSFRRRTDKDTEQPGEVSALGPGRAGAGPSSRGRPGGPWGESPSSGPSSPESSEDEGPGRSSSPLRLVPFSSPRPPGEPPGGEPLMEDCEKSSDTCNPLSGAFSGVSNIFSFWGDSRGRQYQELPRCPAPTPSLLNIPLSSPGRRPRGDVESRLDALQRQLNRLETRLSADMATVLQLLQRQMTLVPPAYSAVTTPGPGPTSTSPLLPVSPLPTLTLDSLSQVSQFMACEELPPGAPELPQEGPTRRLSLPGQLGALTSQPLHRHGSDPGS
row,Compound,"hERG current change (%, negative = inhibition) at 10uM [%]"
1,COc1cc2c(cc1OC)C(C)N(C(=O)c1sccc1C)CC2 (stereo not drawn),8.54
2,CN1C(=O)C(C)(C)c2cc(S(=O)(=O)NCc3ccc(Cl)cc3)ccc21,-25.9
3,CCOc1ccccc1OCCOCCN1CC(C)OC(C)C1 (stereo not drawn),-4.4
4,Cc1ccc(NC(=O)c2c(-c3ccccc3Cl)noc2C)nc1,1.56
5,CC(C)c1ccccc1N=C1SCCN1C1CCS(=O)(=O)C1 (stereo not drawn),-5.71
6,COc1ccc(-c2ccc3c(c2)S(=O)(=O)c2cccc(C(=O)O)c2C3=O)cc1OC,17.7
7,Cc1ccc(Cl)cc1NC(=O)CCC(=O)NCc1ccco1,7.15
8,Cc1c(C(=O)NCC(c2ccco2)N2CCCC2)oc2ccc(Cl)cc12 (stereo not drawn),-42.1
9,Nc1nonc1-c1nc2ccccc2n1CC(=O)O,-0.277
10,COc1ccc(OC)c(NC(=O)C23CCC(C)(C(=O)O2)C3(C)C)c1 (stereo not drawn),13.9
11,Nc1nc(N)nc(-c2cccc(Cl)c2Cl)n1,15.7
12,CC(C)=CCCC(C)N(C=O)C(C)CCC=C(C)C (stereo not drawn),-1.01
13,O=C(/C=C/C=C/c1ccccc1)CC1(O)C(=O)N(CCc2ccccc2)c2ccccc21 (stereo not drawn),11.9
14,O=C(Nc1ccc(F)cc1F)c1ccc2c(c1)[nH]c(=O)n2Cc1ccc(F)cc1,-4.11
15,O=C(NC(=S)N1CCCCC1c1cccnc1)c1ccccc1 (stereo not drawn),4.5
16,Clc1ccc(-c2cn3cccnc3n2)cc1Cl,-1.9
17,N#Cc1ccccc1NC(=O)CSc1n[nH]c(-c2ccco2)n1,14.8
18,COc1cc(OC)nc(Oc2ccccc2C(=O)Oc2ccc(C)cc2)n1,-25.1
19,O=C(CSc1ccccn1)N/N=C/c1cc([N+](=O)[O-])ccc1O,12.2
20,COc1cc(C(=O)NC(C)CCc2ccccc2)cc(OC)c1OC (stereo not drawn),6.27
21,COc1ccc(Cl)cc1NC(=O)Cn1c(=O)oc2ccccc21,8.24
22,Cc1ccc(S(=O)(=O)NC(=O)c2ccccc2)cc1C(C)C,2.83
23,CN(C)C(=O)C[n+]1cccc(/C=N/O)c1,8.28

row,Compound,"hERG current change (%, negative = inhibition) at 10uM [%]"
1,CN1CCC(N(C)S(=O)(=O)c2ccc(NC(=O)c3cccc(C#N)c3)cc2)CC1,2.75
2,Cc1ccccc1CN1CCSc2sccc2C1=O,-12.8
3,COc1ccc(CC(=O)N2CCN=C2SCc2cccc([N+](=O)[O-])c2)cc1,-5.33
4,COc1ccc(CN2CCNC(=O)C2CC(=O)NCCC2=CCCCC2)cc1OC (stereo not drawn),7.31
5,O=C(NCc1ccc2c(c1)CCO2)Nc1ccccc1,9.77
6,Cc1ccccc1C(OCC(O)CN1CCC(C(N)=O)CC1)c1ccccc1 (stereo not drawn),-59.3
7,O=C(CCc1nnc(-c2ccc3c(c2)OCO3)o1)NCCc1ccccc1F,-12.9
8,CCCN1CC=C2C(C#N)=C(N)C(C#N)(C#N)C(c3cc(OC)ccc3OC)C2C1 (stereo not drawn),-19.8
9,CCOC(=O)c1cc(-c2ccccc2)sc1NC(=O)C(C)Sc1nnc(N)s1 (stereo not drawn),26.2
10,COc1ccc(NC(=O)/C(C#N)=C\C=C\c2ccco2)cc1,4.89
11,COc1ccc(-c2cn3cc(C(=O)NN)ccc3n2)cc1,15.4
12,CCN=c1sc(C(=O)NCCc2ccccc2)cc(=O)n1CC,-6.26
13,Cc1ccc(S(=O)(=O)Nc2nc3ccccc3nc2NCc2ccco2)cc1C,-6.13
14,O=C(CNC(=O)c1ccc(S(=O)(=O)N2CCCCC2)cc1)N/N=C/c1ccco1,9.7
15,Cc1ccc(N)cc1O,18.2
16,Cn1ncc(C#N)c1NC(=O)C1CC(c2ccccc2Cl)=NO1 (stereo not drawn),-11.5
17,CCCCC(=O)OCc1c(-c2cccc(OC)c2)ncc2ccccc12,16.5
18,COc1ccc(C(=O)CSc2[nH]c(=O)cc(C(F)(F)F)c2C#N)cc1,18.2
19,CC(OC(=O)C1CCN(c2ccc(C(F)(F)F)cn2)CC1)C(=O)Nc1cccc([N+](=O)[O-])c1 (stereo not drawn),-14.1
20,CC[C@@]1(O)C(=O)OCc2c1cc1n(c2=O)Cc2cc3c(CN(C)C)c(O)ccc3nc2-1.Cl,13.6
21,C/C(=N\Nc1ccc(C(=O)O)cc1)c1nc2ccccc2n1C,9.56
22,COCCN(C(=O)COC(=O)CSc1ccc2ccccc2c1)c1c(N)n(Cc2ccccc2)c(=O)[nH]c1=O,3.86
